From PubChem BioAssay AID504332 (National Center for Advancing Translational Sciences (NCATS), 2011)
In all, about 350,000 compounds went through this assay and about 31,000 (8.9%) were called active. Calls come from the whole dose curve; as a rule, active = well fitted inhibition curve with a large enough effect; inconclusive = small, poorly fitted or top-dose-only effect; inactive = no such curve, though single readings can be large or run the other way. Inconclusive means that the source gave no clear call. Potencies beside an inconclusive call are fits to weak or partial responses and may not hold up.

The compounds below were run against Histone-lysine N-methyltransferase EHMT2 (Homo sapiens) (UniProt Q96KQ7) (assay: qHTS Assay for Inhibitors of Histone Lysine Methyltransferase G9a). Settings: G9a H3K9 monomethylation, AlphaScreen, 2 h; series mostly up to 59 µM.
Description: Methylated lysines, on the N-terminal tails of histone proteins serve as epigenetic markers to recruit factors that can then modify local chromatin structure to lead to functional consequences. G9a and other members of the SUV39 family of the SET domain-containing superfamily of histone lysine methyltransferases (HMT) have been identified to specifically methylate Lys9 of histone H3 (H3K9). G9a catalyzes the mono- and di-methylation of H3K9 in mammalian euchromatic regions, where the resulting H3K9me2 is indicative of transcriptional repression. […] The inhibition of G9a will result in transcriptional activation and work synergistically with DNA methyltransferase and histone deacetylase inhibitors, to kill cancer cells. This qHTS assay for identification of G9a inhibitors is a chemiluminescence based AlphaScreen (PerkinElmer). Methylation of biotinylated-histone peptide is measured through specific antibody-based detection, in conjunction with streptavidin-coated donor and anti-IgG antibody-coated acceptor beads. The method is particularly well suited for detection of inhibitors acting by the desired histone peptide competitive mechanism and is applicable to testing other HMTs. Although AlphaScreen has significant advantages with its utility in a variety of epigenetic target assays, the primary screening data provided in this deposition should be used with caution due to the prevalence of screening artifacts. An AlphaScreen counterscreen is highly recommended to be run against any putative actives to eliminate non specific artifacts. […]
To each well of a 1,536w plate, 2ul of HMT enzyme (final 20nM) were added, using a nanoliter dispenser. […] Methylated b-H3K9 peptide product was detected with 0.5 ug/mL rabbit polyclonal anti-monomethyl histone H3K9 antibody (Abcam Inc., Cambridge, MA) and 20 ug/mL each streptavidin-coated donor and anti-rabbit IgG acceptor AlphaScreen beads. […] Microplates were then read on an EnVision multilabel plate reader using the 1,536 plate HTS AlphaScreen aperture (excitation time 80 ms, measurement time 240 ms).
Note: nearly all actives have a fitted effect of over 75% in size.
Potency is the fitted concentration of half-maximal effect; tags give direction and shape of the fitted curve.

UniProt Q96KQ7, sequence (Q96KQ7 whole entry, looked up, the tested form may be a part): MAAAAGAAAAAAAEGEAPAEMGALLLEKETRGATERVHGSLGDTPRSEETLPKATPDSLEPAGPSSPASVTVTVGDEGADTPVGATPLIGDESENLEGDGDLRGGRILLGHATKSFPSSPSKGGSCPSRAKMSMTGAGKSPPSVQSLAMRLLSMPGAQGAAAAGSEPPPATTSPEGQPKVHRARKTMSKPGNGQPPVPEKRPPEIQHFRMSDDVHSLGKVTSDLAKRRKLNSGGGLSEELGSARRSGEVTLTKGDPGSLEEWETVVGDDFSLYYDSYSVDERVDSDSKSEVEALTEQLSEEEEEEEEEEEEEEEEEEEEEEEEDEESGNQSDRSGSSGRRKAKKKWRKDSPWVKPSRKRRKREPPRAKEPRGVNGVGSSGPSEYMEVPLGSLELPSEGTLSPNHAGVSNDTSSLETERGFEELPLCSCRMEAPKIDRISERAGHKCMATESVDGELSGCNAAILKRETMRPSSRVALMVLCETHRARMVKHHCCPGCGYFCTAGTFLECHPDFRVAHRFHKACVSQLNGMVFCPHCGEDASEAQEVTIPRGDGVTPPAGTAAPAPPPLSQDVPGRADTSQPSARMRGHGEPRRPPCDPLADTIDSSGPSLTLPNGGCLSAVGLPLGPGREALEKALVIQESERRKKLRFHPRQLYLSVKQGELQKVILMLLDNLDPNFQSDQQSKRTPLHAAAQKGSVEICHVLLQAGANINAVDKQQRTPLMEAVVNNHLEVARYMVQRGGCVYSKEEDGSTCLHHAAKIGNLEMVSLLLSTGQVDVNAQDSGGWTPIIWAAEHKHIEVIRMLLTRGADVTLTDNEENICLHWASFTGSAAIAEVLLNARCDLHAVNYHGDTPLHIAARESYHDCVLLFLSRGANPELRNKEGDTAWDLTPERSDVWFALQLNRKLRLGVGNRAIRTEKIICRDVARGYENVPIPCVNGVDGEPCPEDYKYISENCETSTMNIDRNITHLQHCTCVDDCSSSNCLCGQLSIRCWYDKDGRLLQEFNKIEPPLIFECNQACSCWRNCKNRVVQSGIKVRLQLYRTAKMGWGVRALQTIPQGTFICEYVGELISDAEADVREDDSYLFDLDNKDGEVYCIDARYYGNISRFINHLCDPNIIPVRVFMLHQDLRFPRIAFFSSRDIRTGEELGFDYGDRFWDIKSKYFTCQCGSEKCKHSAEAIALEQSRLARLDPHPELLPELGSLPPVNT

Question: How did the Potency turn out when `COc1cc(NS(=O)(=O)c2ccc(NC(=S)NC(=O)c3sc4ccccc4c3Cl)cc2)nc(OC)n1` was run?
Answer: inconclusive: 1.12 µM [inhibitor, full curve, poor fit]

Question: With `COc1cc(/C=C2\C(=N)N3N=C(S(C)(=O)=O)SC3=NC2=O)cc(OC)c1OCCOc1cccc(C)c1` as the compound, how does the Potency read?
Answer: inconclusive: 79.4 µM [inhibitor, single point]

Question: How did the Potency turn out when `O=C(NN1C(=O)/C(=C/c2ccc(O)cc2)SC1=S)c1ccccc1O` was run?
Answer: inconclusive: 89.1 µM [inhibitor, single point]
